# Experimental data reported in PMC4336329 (PLoS ONE, 2015).
# Out of some 310,000 compounds screened, about 14,000 (4.5%) showed an effect of 50% or more. The effect is printed as a negative number. The list shows a part of the results.
# Biological target: human ether-à-go-go-related gene (hERG) potassium channel (human, UniProt Q12809)
# Test: primary screen, population patch clamp on CHO cells stably expressing hERG
# 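Note: peak tail current of the secondary pulse compared with the same well before compound.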
# Sequence of human ether-à-go-go-related gene (hERG) potassium channel (Q12809 whole entry, looked up): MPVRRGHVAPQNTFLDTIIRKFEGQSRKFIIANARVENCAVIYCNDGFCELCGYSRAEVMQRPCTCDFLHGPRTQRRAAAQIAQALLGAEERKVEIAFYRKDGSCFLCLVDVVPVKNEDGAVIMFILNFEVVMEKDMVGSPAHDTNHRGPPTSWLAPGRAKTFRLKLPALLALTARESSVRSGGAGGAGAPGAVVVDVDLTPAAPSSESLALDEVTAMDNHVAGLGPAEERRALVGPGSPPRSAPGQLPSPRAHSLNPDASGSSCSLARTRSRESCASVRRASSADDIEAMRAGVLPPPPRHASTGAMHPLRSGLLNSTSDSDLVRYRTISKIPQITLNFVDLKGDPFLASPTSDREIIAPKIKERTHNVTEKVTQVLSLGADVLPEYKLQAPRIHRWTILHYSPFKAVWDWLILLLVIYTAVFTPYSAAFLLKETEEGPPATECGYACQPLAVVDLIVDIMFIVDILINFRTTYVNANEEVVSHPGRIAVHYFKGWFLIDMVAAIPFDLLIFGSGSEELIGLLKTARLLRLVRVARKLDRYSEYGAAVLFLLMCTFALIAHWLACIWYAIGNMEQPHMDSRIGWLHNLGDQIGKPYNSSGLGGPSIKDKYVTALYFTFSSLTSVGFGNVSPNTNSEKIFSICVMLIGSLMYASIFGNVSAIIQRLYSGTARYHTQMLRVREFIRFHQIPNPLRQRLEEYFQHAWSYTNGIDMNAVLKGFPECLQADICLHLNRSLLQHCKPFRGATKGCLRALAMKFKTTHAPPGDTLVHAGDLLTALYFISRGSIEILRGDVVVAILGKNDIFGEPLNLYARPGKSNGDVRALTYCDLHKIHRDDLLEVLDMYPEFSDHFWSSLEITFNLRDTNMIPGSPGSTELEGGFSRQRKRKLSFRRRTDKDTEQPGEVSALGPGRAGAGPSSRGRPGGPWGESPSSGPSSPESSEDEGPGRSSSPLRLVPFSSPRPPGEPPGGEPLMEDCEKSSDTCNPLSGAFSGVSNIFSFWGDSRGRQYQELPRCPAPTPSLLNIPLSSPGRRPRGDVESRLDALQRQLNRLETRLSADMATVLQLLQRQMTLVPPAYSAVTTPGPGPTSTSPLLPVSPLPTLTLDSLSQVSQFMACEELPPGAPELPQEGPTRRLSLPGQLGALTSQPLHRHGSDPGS
row,SMILES,"hERG current change (%, negative = inhibition) at 10uM [%]"
1,O=C(Nc1ccc(F)cc1F)c1cccc(C(=O)Nc2ccc(F)cc2F)n1,13.2
2,Cc1ccccc1NC(=O)Cc1nnc(SCC(=O)NC2CCCCC2)n1C,19.5
3,COc1ccccc1-n1c(-c2ccccc2Br)nc2ccccc2c1=O,-6.37
4,Cc1ccc(NC(NC(=O)OCCn2c([N+](=O)[O-])cnc2C)C(Cl)(Cl)Cl)cc1 (stereo not drawn),6.71
5,C=CC(=O)NCC1OCCc2ccccc21 (stereo not drawn),3.45
6,CCn1cc(C2=NOC(C(=O)Nc3cc(C)nn3-c3ccccc3)C2)c(C)n1 (stereo not drawn),-23.3
7,Cc1ccc(OCC(=O)c2cc(C)n(Cc3cccs3)c2C)c([N+](=O)[O-])n1,-4.57
8,O=C(Cn1nnc(-c2ccccc2)n1)NNC(=O)c1cccc([N+](=O)[O-])c1,26.3
9,O=C(O)c1ccc(/C=N/N2CCN(c3ccccc3)CC2)cc1,7.59
10,CCOCCc1nnc(NC(=O)C2CCN(C(=O)c3ccco3)CC2)s1,21.8
11,Cc1ccc(-c2csc(NC(=O)C3=NN(c4ccccc4)C(=O)CC3)n2)cc1,3.35
12,Cc1ccc(NC2=NC(c3ccc(O)cc3)n3c(nc(C)cc3=O)N2)cc1 (stereo not drawn),-2.97
13,Cc1cc(C)c(OCC(O)CN2CCN(C(=O)c3ccccc3)CC2)c(C)c1.O=C(O)C(=O)O (stereo not drawn),-46.4
14,O=C1NC[C@@H](Cc2ccc(O)cc2)N(CC2CCCCC2)C1=O,17.9
15,O=C(NCCCSc1ccccc1)c1cc(Br)ccc1O,4.35
16,CCOc1ccccc1-c1noc(CCC(=O)Nc2cccnc2)n1,9.94
17,Cc1nn(Cc2ccccc2)c(N)c1C#N,1.59
18,CCOCCc1nnc(NC(=O)Cc2ccccc2)s1,3.24
19,CC(C)(C)OC(=O)N[C@@H](Cc1ccccc1)C(=O)N1CCC(C(=O)N[C@@H](CCC(N)=O)C(=O)O)CC1,14.5
20,CN1C(=O)/C(=C/c2ccc(C(=O)NC3CCCC3)cc2)Oc2ccccc21,17.1
21,O=C(Nc1ccc(Br)cc1F)c1ccc2c(c1)N(Cc1ccccc1)C(=O)CS2=O (stereo not drawn),-4.04

row,SMILES,"hERG current change (%, negative = inhibition) at 10uM [%]"
1,Cc1ccc(-c2nc(C)sc2CC(=O)OCC(=O)Nc2ccc(F)c(Cl)c2)cc1,-15.9
2,CCN(Cc1ccccc1)C(=O)CN1C(=O)c2ccccc2S1(=O)=O,-3.97
3,CC(=O)NCc1ccc(-c2csc(-c3cccs3)n2)cc1,-40.5
4,CCCCNc1nc2c(c(=O)n(C)c(=O)n2C)n1CCC,9.61
5,O=c1cc(-c2ccccc2)nc(N2CCCCC2)[nH]1,-13.7
6,CN(C)S(=O)(=O)c1ccc2nc(NC(=O)c3cccs3)sc2c1,-8.81
7,Cc1nnc(-c2cnn(-c3ccccc3)c2N)n1Cc1ccc(F)cc1,-13.3
8,COc1ccc(Cl)cc1NC(=O)CCNS(=O)(=O)c1cccc2nonc12,11
9,CN(C)/C=C/C(=O)/C=C/c1ccc(Cl)cc1Cl,-22.2
10,Cc1nn(-c2ccccc2)c(Cl)c1/C=N/Nc1ccc(S(=O)(=O)Nc2ccccc2C(=O)O)cc1[N+](=O)[O-],11.2
11,CC(C)CCN(C(=S)Nc1cccc(C(F)(F)F)c1)C(C)c1ccccn1 (stereo not drawn),-1.76
12,C#CCOCCOCCOCCNc1nc(N2CCN(C(=O)[C@H](Cc3ccc(O)cc3)n3cc([C@@H](N)C(C)CC)nn3)CC2)nc(N2CCN(C(=O)[C@H](CCCCN)n3cc([C@@H](N)CC(C)C)nn3)CC2)n1.Cl (stereo partly drawn),6.05
13,CCCN(CCC)C(=O)c1ccc2nc(-c3ccc(OC)c(OC)c3)c(-c3ccc(OC)c(OC)c3)nc2c1,-5.84
14,CSc1nc(-c2ccc(C)cc2)nc(N)c1C#N,7.79
15,O=C(CN1CCN(S(=O)(=O)c2cccc(F)c2)CC1)NCC1(N2CCOCC2)CCCCC1,-5.26
16,Cc1ccc(C(C(=O)NCC2CCCO2)N(Cc2ccccc2)C(=O)c2ccc(-c3ccccc3)[nH]2)o1 (stereo not drawn),-7.63
17,CC(=NCc1ccc2c(c1)OCO2)C1=C(O)c2ccccc2C1=O,1.76
18,CCc1ccc2c(c1)C(C)=CC(C)(C)N2,17
19,CCOc1ccc(CCNC(=O)c2ccccc2OCc2c(C)noc2C)cc1OCC,-12.4
20,c1ccc(-c2nnc3n2CCCC3)cc1,6.32
21,Cc1cccc(NC(=O)COc2cccc3c2CCN(C)C3=O)c1,10.6
